Data: publication PMC4336329 (PLoS ONE, 2015)
Screen size: about 310,000 compounds; about 2,200 (0.71%) showed an effect of 50% or more. The effect is printed as a negative number. Some of the results follow.

Target: human ether-à-go-go-related gene (hERG) potassium channel (human, UniProt Q12809)
Experiment: primary screen, population patch clamp on CHO cells stably expressing hERG

human ether-à-go-go-related gene (hERG) potassium channel, sequence (Q12809 whole entry, looked up): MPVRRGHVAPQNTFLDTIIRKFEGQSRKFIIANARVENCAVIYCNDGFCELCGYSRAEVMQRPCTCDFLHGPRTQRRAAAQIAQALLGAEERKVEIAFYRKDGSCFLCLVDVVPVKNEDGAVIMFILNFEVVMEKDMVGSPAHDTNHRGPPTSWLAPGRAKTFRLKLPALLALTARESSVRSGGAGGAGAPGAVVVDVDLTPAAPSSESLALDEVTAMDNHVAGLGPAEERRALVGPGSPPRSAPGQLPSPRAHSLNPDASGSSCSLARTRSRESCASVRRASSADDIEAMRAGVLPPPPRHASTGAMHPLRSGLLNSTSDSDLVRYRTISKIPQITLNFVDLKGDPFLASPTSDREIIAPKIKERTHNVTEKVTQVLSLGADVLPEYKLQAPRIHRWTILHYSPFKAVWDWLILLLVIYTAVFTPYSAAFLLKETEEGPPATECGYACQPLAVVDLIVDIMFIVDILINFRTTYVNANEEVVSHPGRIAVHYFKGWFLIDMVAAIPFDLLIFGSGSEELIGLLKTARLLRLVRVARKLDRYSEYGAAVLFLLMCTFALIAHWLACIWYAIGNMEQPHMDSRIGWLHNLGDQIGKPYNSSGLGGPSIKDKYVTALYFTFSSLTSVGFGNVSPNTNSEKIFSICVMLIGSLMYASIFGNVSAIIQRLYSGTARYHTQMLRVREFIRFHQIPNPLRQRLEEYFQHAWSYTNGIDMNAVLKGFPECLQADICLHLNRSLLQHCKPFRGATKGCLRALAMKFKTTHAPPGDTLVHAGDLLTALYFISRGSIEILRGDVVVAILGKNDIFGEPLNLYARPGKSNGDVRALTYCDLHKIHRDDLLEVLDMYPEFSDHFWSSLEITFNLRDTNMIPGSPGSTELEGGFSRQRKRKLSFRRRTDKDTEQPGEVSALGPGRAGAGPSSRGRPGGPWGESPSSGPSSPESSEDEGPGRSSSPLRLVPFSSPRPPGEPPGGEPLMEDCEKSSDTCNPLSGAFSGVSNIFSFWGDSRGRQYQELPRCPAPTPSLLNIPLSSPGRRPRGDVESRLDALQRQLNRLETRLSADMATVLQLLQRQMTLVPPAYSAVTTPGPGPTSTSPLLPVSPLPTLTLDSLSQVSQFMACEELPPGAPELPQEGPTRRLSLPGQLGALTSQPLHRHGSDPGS

Structure (SMILES) | hERG current change (%, negative = inhibition) at 1uM [%]
Cn1cccc1C(=O)NC(=O)COC(=O)c1cc(S(=O)(=O)N2CCCCC2)ccc1Cl | 18
CC(C)CC(=O)Nc1cccc(NC(=O)c2ccccc2Cl)c1 | -8.98
N#Cc1ccc(N2CCN(C(=O)c3cccc(F)c3)CC2)c(F)c1 | -45.1
Cc1ccc(/C(O)=C2\C(=O)C(=O)N(CC(C)O)C2c2cccc(F)c2)cc1 (stereo not shown) | 23.9
CCCCN(CCCC)Cc1cc2ccccc2c2c1COC2 | -15.4
Cc1ccc(C(=O)Nc2nc(=O)[nH]s2)cc1 | 7.77
Cc1ccc(-c2csnn2)cc1 | 9.29
Cn1c(CO)cnc1SCc1ccc(F)cc1 | 14.8
Cc1ccc(-c2noc(Cn3nc(C(=O)O)c4ccccc4c3=O)n2)cc1 | 20.1
CCOc1ccc(S(=O)(=O)N2CCN(c3ccccn3)CC2)cc1 | 6.28
COc1ccc(OC)c(NC(=O)c2ccc(CN3CCc4ccccc4C3)cc2)c1 | 9.55
CCOc1ccccc1N1CCN(C(=O)c2c(CC)noc2C)CC1 | 10.3
COc1cc(OC)c(S(=O)(=O)N2CCN(C(=O)c3ccccc3F)CC2)cc1NC(C)=O | 3.87
Cc1cccc(C)c1NC(=O)C/C(N)=N/O | 2.58
COc1ccc(CCNC(=O)C/C(C)=N/NC(=O)COc2ccc(C)cc2Br)cc1OC | -15.1
CCCCn1c(N)c(N(CC(C)C)C(=O)C2CCN(S(=O)(=O)c3ccc(F)cc3)CC2)c(=O)[nH]c1=O | 5.71
COc1cccc(NC(=S)N(CCCN2CCOCC2)C(C)c2cc3ccccc3o2)c1 (stereo not shown) | 10.6
OCCC1CN(Cc2cnc(-c3ccccc3)s2)CCN1Cc1ccccc1 (stereo not shown) | 1.93
c1ccc(-c2cn3c(n2)CCC3)cc1 | 6.71
Cc1ccc(NC(=S)NCc2ccc(F)cc2)cc1 | 6.2

Structure (SMILES) | hERG current change (%, negative = inhibition) at 1uM [%]
COC(=O)c1ccccc1NC(=O)NCc1ccncc1 | 3.03
CN1CCN(C2Cc3ccccc3Sc3ccc(Cl)cc32)CC1.O=C([O-])/C=C\C(=O)[O-] (stereo not shown) | 5.69
COc1cccc(OCC(=O)NNC(=O)C(=O)N2CCCC2)c1 | 4.29
O=C(CCCN1C(=O)C2CC=CCC2C1=O)Nc1ccccc1Cl (stereo not shown) | -2.68
Cc1ccc(S(=O)(=O)NC(=O)NN2CC3CCCC3C2)cc1 (stereo not shown) | 16.1
CN(CC(=O)N1CCc2ccccc21)S(=O)(=O)c1ccc(Cl)cc1 | -0.885
CCOc1ccc(-c2cnc(NCc3cccc4ccccc34)n2CCOC)cc1.O=C(O)C(=O)O | 6.64
CCCCCCCCCSc1n[nH]c(N)n1 | 2.01
CC1(C)CC(=O)C2=C(C1)Oc1ncn(CCCO)c(=N)c1C2c1ccccc1 (stereo not shown) | -0.734
CCOC(=O)c1c(NC(=O)COC(=O)c2c(C)noc2C)sc2c1CCC2 | -0.511
COc1ccc(-c2nnc(-c3ccc(OCC(C)C)cc3)o2)cc1 | 3.41
O=[N+]([O-])c1ccc(Nc2ccccn2)c([N+](=O)[O-])c1 | 16.2
O=Cc1cn(Cc2ccccc2[N+](=O)[O-])c2ccccc12 | 11.2
CCOc1ccc(-c2nnc(SCc3nnc(-c4ccccc4)o3)n2-c2ccccc2F)cc1 | 0.741
CC(C)C(c1nnnn1C1CCCC1)N1c2ccccc2CC1C (stereo not shown) | 1.7
Cn1cc(CN2CCN(Cc3ccccc3)C(CCO)C2)c(-c2ccccc2)n1 (stereo not shown) | -3.01
O=C(Cc1ccc(Cl)cc1)Nc1cccc(S(=O)(=O)Nc2ccccc2F)c1 | 10.5
CCCC1(CCC)NC(=O)NC1=O | 11.7
CCN(CC)c1ccc(/C=C/c2nc3ccccc3s2)cc1 | 11.7
Cc1c(NS(=O)(=O)c2ccc(N)cc2)c(=O)n(-c2ccccc2)n1C | 17.4

Structure (SMILES) | hERG current change (%, negative = inhibition) at 1uM [%]
CCCCNC(=O)Cc1c(O)c2ccccc2[nH]c1=O | 7.7
C=Cc1ncc(OC)c2c1[nH]c1ccccc12 | 12
CCOCCCNC(=O)c1ccc2c(c1)ncn2-c1ccc(C)cc1C | 0.866
COc1ccc(OCC(=O)N2CCc3ccccc3C2)cc1 | 10.2
O=c1[nH]nc(C(F)(F)F)c2nnn(Cc3ccccc3Cl)c12 | 3.37
CCOc1ccc(NC(=O)c2nc(SCC)ncc2Cl)cc1 | 16.7
CCOC(=O)C1CCCN(C/C(O)=C(\C#N)c2nc(-c3ccc(Cl)cc3)cs2)C1 (stereo not shown) | -5.57
CCCOc1ccc(C(=O)CCC(=O)NNC(=O)c2cccs2)cc1 | 8.59
CCOc1ccc(NC(=O)c2cnccn2)cc1 | 11.9
O=[N+]([O-])c1ccc(C[n+]2cccc3c4ccccc4ccc32)cc1.[Br-] | -18
CCc1nnc(NC(=O)c2ncc(Cl)c(Cl)c2Cl)s1 | 10.6
COc1cccc2cccc(/C=N/n3cnnc3)c12 | -0.812
CCOC(=O)C1CCN(C(=O)c2cc(-c3ccncc3)nc3ccccc23)CC1 | -30.5
O=C(/C=C/c1cccc([N+](=O)[O-])c1)Nc1ccc(Cl)cn1 | 8.73
O=C(Cn1c(O)c(N=NC(=O)c2ccncc2)c2ccccc21)Nc1ccccc1 | -5.6
COc1ccc(NC(=O)c2cccc3c2C(=O)N(CC2CCCO2)C3)cc1OC (stereo not shown) | -3.03
CC(=O)c1ccc(N2CCN(C(=O)c3ccc(Br)cc3)CC2)c(F)c1 | -20.3
CN(c1ccccc1)S(=O)(=O)c1cccc(NC(=O)c2ccncc2)c1 | 0.144
